Assay results published in PubChem BioAssay AID902 (National Center for Advancing Translational Sciences (NCATS), 2007).
Among all 130,000 compounds or so, about 1,900 (1.5%) were called active. Inconclusive results, whose numbers are uncertain, are shown with a selection of clear calls. Calls follow the shape of the dose curve; as a rule, active = well fitted cell-killing curve with a large enough effect; inconclusive = small, poorly fitted or top-dose-only effect; inactive = no such curve, though single readings can be large or run the other way. A potency beside an inconclusive call is a rough fit, not a confirmed value.
% is scaled to controls: 0 for no effect and ±100 for the full control effect; potency is read from the fitted curve at half-maximal effect; tags tell the direction and shape of the fitted curve.

Experiment: qHTS Screen for Compounds that Selectively Target Cancer Cells with p53 Mutations: Cytotoxicity of p53ts Cells at the Nonpermissive Temperature; also: nearly all actives have a fitted effect of over 55% in size
Details: H1299-p53A138V viability at 39C, ATP luminescence, 24 h; activity change, negative = cell killing: at 46.1 µM (top of the series)
In the case of `O=C(Nc1cccnc1)c1cnn2c(C(F)F)cc(C3CC3)nc12`, the Potency is reported as “inactive”. In the case of `CN=c1scc(C)n1/N=C/c1ccc(O)cc1`, the Potency is reported as inconclusive: 7.94 µM [cytotoxic, partial curve]. For `O=C1NCCCC2c3c(cc(Br)c(O)c3Br)OC12N1CCOCC1` (stereo unspecified), the Potency was “inactive”. For `CCc1ccc(NC(=O)CSc2nc3n[nH]c(C)c3c(=N)n2-c2ccc(C)cc2)cc1`, the Potency was active: 20 µM. With `NS(=O)(=O)c1ccc(CCNC(=O)CCCCCNc2nc(=S)[nH]c3ccccc23)cc1` the Potency was inconclusive: 3.55 µM [cytotoxic, partial curve, poor fit]. In the case of `COc1ccc(C(=O)Nc2cnc3ccccn3c2=O)cc1`, the Potency is reported as inconclusive: 12.6 µM [cytotoxic, partial curve, poor fit]. For `CC(C)(C)C(=O)Nc1ccc(-c2nc3ccccc3s2)cc1`, the Potency was active: 0.316 µM. For `N[C@@H](Cc1c[nH]c2ccc([N+](=O)[O-])cc12)C(=O)O`, the activity change, negative = cell killing was inactive: 3.09% [at 9.22 µM]. For `O=C(Nc1ccc2oc(-c3ccccc3)nc2c1)c1ccc2ccccc2c1`, the Potency was inconclusive: 20 µM [cytotoxic, single point]. For `COc1cc2ncnc(Nc3cccc(Cl)c3)c2cc1OC`, the Potency was inconclusive: 31.6 µM [cytotoxic, single point]. With `CCc1cccc(NC(=O)c2cc3c(=O)[nH]c4ccccc4c3n2C)c1` the Potency was inconclusive: 10 µM [cytotoxic, single point]. For `CC(=O)c1cccc(NC(=O)CSc2nnc3ccc(-c4ccc(Cl)cc4)nn23)c1`, the Potency was inconclusive: 0.01 µM [cytotoxic, full curve, poor fit]. For `O=C(CCS(=O)(=O)c1ccccc1)N(Cc1cccnc1)c1nc2c(Cl)cccc2s1`, the Potency was inconclusive: 10 µM [cytotoxic, partial curve]. In the case of `CCc1ccc(NC(=O)c2ccc3c(=O)n4nc(Nc5ccccc5C)sc4nc3c2)cc1`, the Potency is reported as inconclusive: 25.1 µM [cytotoxic, single point]. With `CNCC[C@H](Oc1ccccc1C)c1ccccc1` the Potency was active: 12.6 µM. With `C=CCc1c(C)nc2nc(SCC(=O)Nc3cccc(Cl)c3)nn2c1C` the Potency was inconclusive: 31.6 µM [cytotoxic, single point]. For `CC(C)(C)Nc1ncnc2c1cnn2-c1ccccc1`, the Potency was active: 10 µM. For `COc1ccc2[nH]cc(CCNc3ncnc4ccc(-c5ccoc5)cc34)c2c1`, the Potency was inconclusive: 31.6 µM [cytotoxic, single point]. With `Cc1cnc(NC(=O)CSc2nnc(-c3ccccc3)o2)s1` the Potency was active: 10 µM. For `CCCCCNC(=O)c1cc2c(=O)n3ccccc3nc2n1C`, the Potency was “inactive”. In the case of `O=c1c(-c2cccs2)nc2cnc(N3CCNCC3)nc2n1CCc1ccccc1`, the Potency is reported as active: 15.8 µM. For `Oc1ccc(/C=C/c2nc(-c3ccccc3O)n(-c3ccccc3)n2)c(O)c1`, the Potency was inconclusive: 31.6 µM [cytotoxic, single point]. In the case of `Cc1ncsc1C(=O)Nc1nc2c(s1)CCCC2`, the Potency is reported as inconclusive: 12.6 µM [cytotoxic, single point]. In the case of `CC(=O)Nc1cccc(NC(=O)c2cc3ccccc3o2)c1`, the Potency is reported as active: 6.31 µM. With `COc1cc(NC(=O)c2cc3sccc3n2C)cc(OC)c1` the Potency was inconclusive: 15.8 µM [cytotoxic, partial curve]. With `CCOC(=O)c1ccc(NC(=O)Cn2nc3c4ccccc4n(Cc4cccc(F)c4)cc-3c2=O)cc1` the Potency was inconclusive: 25.1 µM [cytotoxic, partial curve]. With `O=S(=O)(NCCC(c1ccc(F)cc1)c1ccco1)c1ccccc1` (stereo unspecified) the Potency was inconclusive: 28.2 µM [cytotoxic, single point]. In the case of `CCOC(=O)CSc1nc2ccccc2c(=O)n1NC(=O)c1ccccc1`, the Potency is reported as inconclusive: 12.6 µM [cytotoxic, partial curve]. With `COC(=O)c1ccccc1Nc1cc(C)nc2nc(C)nn12` the Potency was “inactive”. With `COc1cc(OC)cc(-c2cc3nc(C)c(CCC(=O)NCCc4cccc(C)c4)c(C)n3n2)c1` the Potency was inconclusive: 20 µM [cytotoxic, single point]. For `COc1ccccc1OCc1ccc(C(=O)Nc2ccncc2)o1`, the Potency was “inactive”. In the case of `O=C(NCCc1ccc(Cl)cc1)c1c2c(nc3ccccc13)C(=O)N(C1CCCCC1)C2`, the Potency is reported as inconclusive: 2.51 µM [cytotoxic, full curve]. For `CC(=O)c1c(C)[nH]c(C(=O)Nc2ccc3c(c2)OCCO3)c1C`, the Potency was inconclusive: 12.6 µM [cytotoxic, partial curve]. With `O=C(CCCn1c2ccccc2c(=O)c2ccccc21)Nc1cccc(Cl)c1` the Potency was inconclusive: 31.6 µM [cytotoxic, single point]. In the case of `Cc1ccc(C(=O)Nc2ccc3c(c2)OCO3)o1`, the Potency is reported as inconclusive: 15.8 µM [cytotoxic, partial curve]. With `CC1CCN(C(=O)c2cc(-c3ccccc3O)on2)CC1` the Potency was inconclusive: 10 µM [cytotoxic, partial curve]. For `O=C(COc1ccc(Cl)cc1Cl)NC(=O)N1CCCCC1`, the Potency was inconclusive: 12.6 µM [cytotoxic, partial curve]. With `CCC1CN(C(=O)Nc2ccccc2F)c2cc(C)ccc2O1` (stereo unspecified) the Potency was inconclusive: 6.31 µM [cytotoxic, partial curve, poor fit]. For `c1ccc(Nc2cc(Nc3ccccc3)[nH]n2)cc1`, the Potency was inconclusive: 25.1 µM [cytotoxic, single point]. With `O=C(CSCc1ccc(F)cc1)N1CCN(c2ccccc2F)CC1` the activity change, negative = cell killing was inconclusive: -30.2% [cytotoxic]. For `Cc1cc(C(=O)Nc2sc3c(c2C#N)CCC3)no1`, the Potency was active: 12.6 µM. For `CCc1ccc(NC(=O)CSc2ccnc(=O)[nH]2)cc1`, the Potency was inconclusive: 6.31 µM [cytotoxic, partial curve, poor fit]. For `CN1C(=O)C(Cc2c[nH]c3ccccc23)NC1=S` (stereo unspecified), the Potency was inconclusive: 12.6 µM [cytotoxic, single point]. For `CCCCN(CCCC)S(=O)(=O)c1ccc(C(=O)Nc2nnc(CSC)o2)cc1`, the Potency was active: 15.8 µM. For `Cc1ccc(-c2nn3c(-c4ccccc4C)nnc3c3ccccc23)cc1`, the Potency was inconclusive: 7.94 µM [cytotoxic, partial curve]. With `Cc1coc(NC(=O)CSc2nc(-c3ccncc3)cc(C(F)(F)F)c2C#N)n1` the Potency was “inactive”. With `COc1ccc(NC(=O)Nc2ccc3nccnc3c2)cc1` the Potency was inconclusive: 20 µM [cytotoxic, partial curve]. For `O=c1cc(-c2ccccc2)[nH]n1-c1nc2ccccc2[nH]1`, the Potency was inconclusive: 31.6 µM [cytotoxic, single point]. For `COc1ccccc1-n1nnnc1S(=O)(=O)Cc1ccc(Cl)cc1`, the Potency was active: 6.31 µM. In the case of `COc1ccccc1OCCn1c(NC(=O)c2ccccc2Cl)nc2ccccc21`, the Potency is reported as “inactive”. In the case of `CCc1ccc(C(=O)c2cn(CC(=O)Nc3ccc4c(c3)OCO4)c3ccc(CC)cc3c2=O)cc1`, the Potency is reported as active: 12.6 µM. With `Cc1cc2c(cc1S(=O)(=O)CCC(=O)N1CCC(C)CC1)OCC(=O)N2` the Potency was inconclusive: 4.47 µM [cytotoxic, partial curve]. In the case of `Cc1ccc(Nc2nc3nonc3nc2Nc2cccc(C(F)(F)F)c2)cc1Cl`, the Potency is reported as active: 10 µM. For `CCOc1cc2sc(N3CCC(C(=O)Nc4ccc(CC)cc4)CC3)nc2cc1Br`, the Potency was inconclusive: 10 µM [cytotoxic, partial curve]. In the case of `Cc1ccc(C)c(N2CCN(C(=O)c3cn(CC(C)C)c(=O)c4c3c3ccccc3n4C)CC2)c1`, the Potency is reported as “inactive”. In the case of `CC(C)[C@H](O)C1=CCCCC1=O`, the activity change, negative = cell killing is reported as inactive: -8.21% [at 9.22 µM]. For `c1ccc(COc2ccc(OCCCn3cncn3)cc2)cc1`, the Potency was inconclusive: 12.6 µM [cytotoxic, partial curve]. For `NC(=O)c1ccccc1N/C=C/C(=O)c1ccco1`, the Potency was inconclusive: 10 µM [cytotoxic, partial curve]. With `CN1CCN(C2=C(Cl)C(=O)N(Cc3ccccc3)C2=O)CC1` the Potency was inconclusive: 25.1 µM [cytotoxic, single point]. For `Cn1c(=O)c(-c2ccc(F)cc2)nc2cnc(N3CCOCC3)nc21`, the Potency was “inactive”. For `COc1ccc(/C=N/n2c(N)nc3ccccc32)cc1OC`, the Potency was inconclusive: 12.6 µM [cytotoxic, single point]. In the case of `CCc1ccc(-n2c(=O)c3c4c(sc3n(CC(=O)c3ccc(F)cc3)c2=O)CCC4)cc1`, the Potency is reported as inconclusive: 20 µM [cytotoxic, single point]. With `COc1ccc(-c2ccc3c(N)c(C(=O)c4ccc(OC)c(OC)c4)sc3n2)cc1` the Potency was inconclusive: 5.01 µM [cytotoxic, single point]. In the case of `COc1ccc(CN2CCc3c(c(=O)n4ncc(C(=O)N5CCN(c6ccccc6OC)CC5)c4n3C)C2)cc1`, the Potency is reported as inconclusive: 0.01 µM [cytotoxic, full curve, poor fit]. With `Cc1cccc(NC(=O)Cn2nnc(-c3nc(-c4ccncc4)no3)c2N)c1` the Potency was inconclusive: 1 µM [cytotoxic, single point]. In the case of `CCOC(=O)c1sc2cccc(F)c2c1S(=O)(=O)NCc1ccccc1Cl`, the Potency is reported as “inactive”. For `Cc1ccc2nc(NC(=O)CSc3[nH]c(=O)ncc3C)sc2c1`, the Potency was inconclusive: 31.6 µM [cytotoxic, partial curve, poor fit]. In the case of `Brc1ccc(-c2nc(-c3ccccn3)no2)o1`, the Potency is reported as active: 6.31 µM. With `Cc1ccc(-n2c(SCc3ccccc3F)nc3[nH]ncc3c2=O)cc1Cl` the Potency was inconclusive: 25.1 µM [cytotoxic, single point]. In the case of `Cc1ccc(C(=O)Nc2nnn(C)n2)cc1`, the Potency is reported as inconclusive: 20 µM [cytotoxic, single point]. With `Cc1ccc(NC(=O)c2cc(S(=O)(=O)N3CCC4(CC3)OCCO4)ccc2F)cc1Cl` the Potency was inconclusive: 12.6 µM [cytotoxic, partial curve, poor fit].
